Among all 46,000 compounds or so, about 60 (0.1%) were called active. Roughly 3% stayed inconclusive and do not appear here. Calls come from the whole dose curve; as a rule, active = well fitted inhibition curve with a large enough effect; inconclusive = small, poorly fitted or top-dose-only effect; inactive = no such curve, though single readings can be large or run the other way. The list shows a part of the results.
Assay: Primary qHTS assay for Inhibitors of ovarian cancer metastasis using an organotypic tumor microenvironment (TME) model.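 For activity change, negative = inhibition: plate controls were DMSO wells for no effect and tomatine positive control wells for full effect.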 Note: nearly all actives have a fitted effect of over 65% in size.
Details: SKOV3ip1-GFP adhesion/invasion on 3D omental model, fluorescence; series mostly up to 45.8 µM; activity change, negative = inhibition: at the top concentration
Method in brief: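 Primary human omental fibroblast/mesothelial 3D culture pre-formed 48 h. SKOV3ip1-GFP cells added with compounds (0.36-46 umol/L), incubated 2 h RT/16 h 37 C, fixed; GFP cells quantified at 488/509 nm.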

SMILES	activity change, negative = inhibition	outcome
COc1ccc2c(c1OC)CN1CCc3cc4c(cc3C1C2)OCO4 (centres undefined)	inactive: -20.2%	–
Cc1oc2cc3oc(=O)c(CCC(=O)N4CCCCC4)c(C)c3cc2c1C	inactive: 9.5%	–
CNC(=O)c1ccc(N2C(=S)N(c3ccc(C#N)c(C(F)(F)F)c3)C(=O)C23CCC3)cc1F	inactive: -6.48%	–
CCOc1ccc(CN(CCc2ccc3c(c2)OCO3)Cc2ccc(CC)cc2)cc1	inactive: -8.69%	–
O=C(Nc1nc2ccccc2s1)c1cccn(Cc2ccccc2)c1=O	–	inactive
Cc1cccc(OC(C)C(=O)NCC2(N(C)C)CCCCC2)c1C (centres undefined)	inactive: -23.4%	–
Cc1nnc(NC(=O)c2cccn(Cc3ccccc3)c2=O)s1	inactive: -19.2%	–
O=C(COc1ccccc1Cl)N1CCN(CCc2ccccn2)CC1	inactive: 1.24%	–
CCOc1ccc(CN(CCc2ccc3c(c2)OCO3)Cc2cccc(Br)c2)cc1	inactive: -29.6%	–
CC(C)[C@]12O[C@@H]1[C@@H]1O[C@]13[C@]1(O[C@H]1C[C@@H]1C4=C(CC[C@@]13C)C(=O)OC4)[C@H]2O	inactive: -2.37%	–
COc1ccc(CC2NCCc3cc(OC)c(OC)cc32)cc1OC (centres undefined)	inactive: -17.1%	–
CCCCCC[C@H]1C(=O)O[C@H](C)[C@H](NC(=O)c2cccc(NC=O)c2O)C(=O)O[C@@H](C)[C@@H]1OC(=O)CC(C)C	inactive: -2.71%	–
CC(=O)c1ccc(NC(=O)c2sc3nc4c(cc3c2N)N2CCC4CC2)cc1	–	inactive
COc1cc2cc(c1Cl)N(C)C(=O)C[C@H](OC(=O)C(C)C)[C@]1(C)O[C@H]1[C@H](C)[C@@H]1C[C@@](O)(NC(=O)O1)[C@H](OC)C=CC=C(C)C2	inactive: 5.91%	–
Cc1ccc(-n2c(/C=C/c3ccccc3)nc3ccccc3c2=O)cc1C	–	inactive
CCOC(=O)Nc1ccc(NCc2ccc(F)cc2)cc1N	inactive: -7.24%	–
C[C@@H]1C[C@@H]([C@H](O)CC2CC(=O)NC(=O)C2)C(=O)[C@@H](C)C1	inactive: -11.5%	–
Cc1ccc2scc(N3CCN(C)CC3)c(=O)c2c1	inactive: -6.88%	–
Cc1cccc(-n2c(/C=C/c3cccc4ccccc34)nc3ccccc3c2=O)c1	inactive: -3%	–
CCSc1nnc(NC(=O)c2cccn(Cc3ccc(Cl)cc3)c2=O)s1	inactive: -8.24%	–
CCOc1ccc(CN2C(=O)c3ccccc3Sc3ccc(C(=O)N4CCC5(CC4)OCCO5)cc32)cc1	inactive: -7.07%	–
Cc1c(C(c2ccc(O)cc2)c2c(O)c3ccccc3oc2=O)c(=O)n(-c2ccccc2)n1C (centres undefined)	inactive: 8.53%	–
NC(=O)c1ccc(NC(=O)c2cccn(Cc3ccccc3)c2=O)cc1	inactive: -3.27%	–
Cc1ccc(-n2c(/C=C/c3cccc(C(F)(F)F)c3)nc3ccccc3c2=O)cc1	–	inactive

SMILES	activity change, negative = inhibition	outcome
Cc1ccc(C)c(CN2C(=O)c3ccccc3Sc3ccc(C(=O)N4CCC5(CC4)OCCO5)cc32)c1	inactive: -31.5%	–
O=C(c1ccc2c(c1)N(Cc1c(F)cccc1Cl)C(=O)c1ccccc1S2)N1CCC2(CC1)OCCO2	inactive: -8.48%	–
O=C(Nc1ccc(OC(F)(F)F)cc1)c1cccn(Cc2ccccc2Cl)c1=O	inactive: -0.597%	–
CCn1c(CN2CCN(C)CC2)nc2ccccc21	inactive: 2.99%	–
C=C[C@@H]1CN2CCC1C[C@@H]2[C@@H](O)c1ccnc2ccccc12 (some centres undefined)	inactive: -15.5%	–
Cc1cccc(CN2C(=O)CN=C(c3ccccc3Cl)c3cc(Cl)ccc32)c1	–	inactive
COC[C@H]1OC(=O)c2coc3c2[C@@]1(C)C1=C(C3=O)C2CCC(=O)[C@@]2(C)C[C@H]1OC(C)=O (some centres undefined)	inactive: 8.8%	–
Cc1ccc(-n2c(/C=C/c3cccc4ccccc34)nc3ccccc3c2=O)cc1	inactive: 10.9%	–
Cc1cccc(-n2c(CC3C(=O)Nc4ccc(C)cc43)nc3ccccc3c2=O)c1 (centres undefined)	inactive: -0.271%	–
NCC1(CC(=O)O)CCCCC1	inactive: 4.17%	–
COc1cccc(-n2c(/C=C/c3cccc(C)c3)nc3ccccc3c2=O)c1	inactive: -0.693%	–
Cc1cccc(Cn2cccc(C(=O)Nc3nc4ccccc4s3)c2=O)c1	inactive: -5.53%	–
CCOC(=O)c1ccc(NC(=O)CSc2nc3c(cc2C#N)N2CCC3CC2)cc1	–	inactive
CC(O)(CS(=O)(=O)c1ccc(F)cc1)C(=O)Nc1ccc(C#N)c(C(F)(F)F)c1 (centres undefined)	inactive: -28.7%	–
CCOC(=O)c1cncn1[C@H](C)c1ccccc1	inactive: 4.07%	–
N#Cc1cc2c(nc1SCC(=O)Nc1ccc(Cl)c(C(F)(F)F)c1)C1CCN2CC1	–	inactive
COc1ccc(NC(=O)c2cccn(Cc3ccc(Cl)cc3)c2=O)c(OC)c1	inactive: -7.41%	–
O=C(COc1ccccc1[N+](=O)[O-])N1CCN(CCc2ccccn2)CC1	inactive: -2.82%	–
Cc1ccccc1-n1c(/C=C/c2ccccc2F)nc2ccccc2c1=O	inactive: 14.9%	–
O=C(Nc1ccccc1C(F)(F)F)c1cccn(Cc2ccccc2)c1=O	inactive: -5.47%	–
COC1(CS(=O)c2ccccc2)CCN(CCc2c[nH]c3ccc(F)cc23)CC1 (centres undefined)	inactive: 1.79%	–
Nc1c(C(=O)Nc2ccc(Cl)c(C(F)(F)F)c2)sc2nc3c(cc12)N1CCC3CC1	–	inactive
COc1cccc(-n2c(/C=C/c3ccccc3O)nc3ccccc3c2=O)c1	inactive: -16.1%	–
COc1ccc(-n2c(/C=C\c3ccccc3F)nc3ccccc3c2=O)cc1OC	inactive: -1.95%	–

SMILES	activity change, negative = inhibition	outcome
Cc1ccccc1-n1c(Cn2ncc3c(N)ncnc32)nc2cccc(C)c2c1=O	inactive: -9.47%	–
Cc1ccc(CN2C(=O)c3ccccc3Sc3ccc(C(=O)N4CCC5(CC4)OCCO5)cc32)cc1	inactive: 8.69%	–
Cc1ccccc1-n1nc(C)c2c1NC(=O)CSC2c1ccc(N(C)C)cc1 (centres undefined)	inactive: 6.21%	–
CCCCCc1nc2ccccc2c(=O)n1-c1ccc(C)cc1	–	inactive
Cc1ccc(NC(=O)CN2C(=O)CN=C(c3ccccc3)c3ccccc32)cc1	inactive: 33.7%	–
CCCC(C)(COC(N)=O)COC(=O)NC(C)C (centres undefined)	inactive: -8.45%	–
COc1cc(OC)c(OC)cc1C=O	inactive: -1.69%	–
CC(O)=C(C#N)C(=O)Nc1cc(Br)ccc1Br	inactive: -12.5%	–
CC(=Cc1csc(C)n1)[C@@H]1C[C@H]2O[C@]2(C)CCC[C@H](C)[C@@H](O)[C@@H](C)C(=O)C(C)(C)[C@@H](O)CC(=O)O1	inactive: -8.74%	–
CC(C)c1nn2c(=O)cc(COC(=O)Cc3ccccc3)nc2s1	–	inactive
N=c1c2c(-c3ccccc3)c(-c3ccccc3)n(Cc3ccccc3)c2ncn1C1CCC(O)CC1 (centres undefined)	inactive: -14.4%	–
O=C(Nc1cc(C(F)(F)F)cc(C(F)(F)F)c1)c1cccn(Cc2ccccc2Cl)c1=O	–	inactive
C[C@]12CCC(=O)C(O)=C1CC[C@@H]1[C@H]3CCC(=O)[C@@]3(C)CC[C@@H]12	inactive: 0.338%	–
CCCC[N+]1(C)[C@H]2CC(OC(=O)[C@H](CO)c3ccccc3)C[C@H]1[C@H]1O[C@H]12 (some centres undefined)	inactive: -19.6%	–
CC(C)(C)c1ccc(C(=O)Nc2ccc(Cl)cc2C(=O)c2ccccc2)cc1	inactive: 15.7%	–
CCCCc1nn2c(=O)cc(COC(=O)Cc3ccccc3)nc2s1	inactive: 6.56%	–
Cc1ccccc1Cn1cccc(C(=O)Nc2nc3ccccc3s2)c1=O	–	inactive
C[C@]12CC[C@H](O)CC1=CC[C@H]1[C@H]3CCC(=O)[C@@]3(C)CC[C@@H]12	inactive: -18.3%	–
C=Cc1ccc(Cn2c(C)c(CNCCc3cc(OC)ccc3OC)c(C(=O)O)c2C)cc1	inactive: 3.88%	–
C=C[C@@H]1CN2CCC1C[C@H]2[C@H](O)c1ccnc2ccccc12 (some centres undefined)	inactive: 7.84%	–
Cc1sc2c(c1C)C(c1ccc(Cl)cc1)=N[C@@H](CC(=O)OC(C)(C)C)c1nnc(C)n1-2	inactive: -10.5%	–
Cc1ccc(-n2c(=O)[nH]c3ccc(Br)cc3c2=O)cc1	inactive: -23.5%	–
CSCC[C@@H](NC(=O)[C@@H](Cc1ccccc1)NC(=O)CNC(=O)CNC(=O)[C@@H](N)Cc1ccc(O)cc1)C(=O)O	inactive: -5.59%	–
O=C(Nc1ccc(F)c([N+](=O)[O-])c1)c1cccn(Cc2ccccc2)c1=O	inactive: -5.53%	–

SMILES	activity change, negative = inhibition	outcome
Cc1cccc(OCC(=O)N2CCN(CCc3ccccn3)CC2)c1	inactive: 6.16%	–
O=P1(N(CCCl)CCCl)NCCCO1 (centres undefined)	inactive: -6.64%	–
O=C(COc1cc(Cl)ccc1Cl)Nc1ccc(Cl)cc1C(=O)c1ccccc1	inactive: -1.86%	–
CN1C(=O)CCS(=O)(=O)C1c1ccc(Cl)cc1 (centres undefined)	inactive: 28.2%	–
CN(C)[C@@H]1C(=O)C(C(N)=O)=C(O)[C@@]2(O)C(=O)C3=C(O)c4c(O)cccc4[C@@](C)(O)[C@H]3[C@H](O)[C@@H]12	inactive: -3.63%	–
O=C(COc1ccccc1F)N1CCN(Cc2cc(=O)n3nc(-c4ccccc4Cl)sc3n2)CC1	inactive: 2.87%	–
N#C[C@H](O[C@@H]1O[C@H](CO[C@@H]2O[C@H](CO)[C@H](O)[C@H](O)[C@H]2O)[C@H](O)[C@H](O)[C@H]1O)c1ccccc1	inactive: -17.6%	–
Cc1ccc2c(c1)C(Cc1nc3ccccc3c(=O)n1-c1ccc(Br)cc1)C(=O)N2 (centres undefined)	inactive: 0.159%	–
COc1ccc(NC(=O)c2sc3nc4c(cc3c2N)N2CCC4CC2)cc1OC	inactive: 6.81%	–
Cc1cccc(-c2nc(CN3C(=O)CN=C(c4ccccc4)c4ccccc43)c(C)o2)c1	inactive: 0.923%	–
CC(=O)O[C@@]12CO[C@H]1C[C@H](O)[C@@]1(C)C(=O)[C@H](O)C3=C(C)[C@@H](O)C[C@@](O)([C@@H](OC(=O)c4ccccc4)[C@@H]21)C3(C)C	inactive: -0.273%	–
Cc1ccc(-n2c(/C=C\c3ccc(F)cc3)nc3ccccc3c2=O)cc1Cl	inactive: 27%	–
CC(C)C12CN3CC(C(C)C)(CN(C1)C3c1ccccn1)C2=O (centres undefined)	inactive: 2.52%	–
CCOc1ccc(NC(=O)Cn2cc(C(=O)c3ccccc3)c3ccccc32)cc1	inactive: -3.27%	–
COc1ccc(C)cc1NC(=O)N(Cc1ccc2c(c1)OCO2)C1CCN(Cc2ccccc2)CC1	inactive: -3.95%	–
Cc1ccc2nc(NC(=O)c3cccn(Cc4ccc(Cl)cc4)c3=O)sc2c1	–	inactive
COC[C@@H](NC(C)=O)C(=O)NCc1ccccc1	inactive: 3.52%	–
Cc1ccc(Cl)cc1NC(=O)N(Cc1ccc2c(c1)OCO2)C1CCN(Cc2ccccc2)CC1	inactive: 1.43%	–
Cn1c(=O)n(C)c2cc(CNCCc3ccc(F)cc3)ccc21	inactive: 1.09%	–
Cc1ccc(NC(=O)Cn2cc(C(=O)c3ccccc3)c3ccccc32)cc1	–	inactive
CNC(=O)N1N=C(c2ccc(N)cc2)c2cc3c(cc2CC1C)OCO3 (centres undefined)	inactive: -8.14%	–
Cc1ccc(Cn2cccc(C(=O)Nc3ccc4c(c3)OCO4)c2=O)cc1	–	inactive

From PubChem BioAssay AID1963576 (National Center for Advancing Translational Sciences (NCATS), 2024)
